Some results were stated once for a whole list of compounds, not compound by compound. At least one structure is not confirmed: it was looked up by name or label, or the drawing left a doubt.
The molecules below were run against C. elegans Slo-1a (Caenorhabditis elegans, UniProt Q95V25). Conditions: CHO cells expressing C. elegans Slo-1a, voltage sensitive dye.
C. elegans Slo-1a, sequence (Q95V25 whole entry): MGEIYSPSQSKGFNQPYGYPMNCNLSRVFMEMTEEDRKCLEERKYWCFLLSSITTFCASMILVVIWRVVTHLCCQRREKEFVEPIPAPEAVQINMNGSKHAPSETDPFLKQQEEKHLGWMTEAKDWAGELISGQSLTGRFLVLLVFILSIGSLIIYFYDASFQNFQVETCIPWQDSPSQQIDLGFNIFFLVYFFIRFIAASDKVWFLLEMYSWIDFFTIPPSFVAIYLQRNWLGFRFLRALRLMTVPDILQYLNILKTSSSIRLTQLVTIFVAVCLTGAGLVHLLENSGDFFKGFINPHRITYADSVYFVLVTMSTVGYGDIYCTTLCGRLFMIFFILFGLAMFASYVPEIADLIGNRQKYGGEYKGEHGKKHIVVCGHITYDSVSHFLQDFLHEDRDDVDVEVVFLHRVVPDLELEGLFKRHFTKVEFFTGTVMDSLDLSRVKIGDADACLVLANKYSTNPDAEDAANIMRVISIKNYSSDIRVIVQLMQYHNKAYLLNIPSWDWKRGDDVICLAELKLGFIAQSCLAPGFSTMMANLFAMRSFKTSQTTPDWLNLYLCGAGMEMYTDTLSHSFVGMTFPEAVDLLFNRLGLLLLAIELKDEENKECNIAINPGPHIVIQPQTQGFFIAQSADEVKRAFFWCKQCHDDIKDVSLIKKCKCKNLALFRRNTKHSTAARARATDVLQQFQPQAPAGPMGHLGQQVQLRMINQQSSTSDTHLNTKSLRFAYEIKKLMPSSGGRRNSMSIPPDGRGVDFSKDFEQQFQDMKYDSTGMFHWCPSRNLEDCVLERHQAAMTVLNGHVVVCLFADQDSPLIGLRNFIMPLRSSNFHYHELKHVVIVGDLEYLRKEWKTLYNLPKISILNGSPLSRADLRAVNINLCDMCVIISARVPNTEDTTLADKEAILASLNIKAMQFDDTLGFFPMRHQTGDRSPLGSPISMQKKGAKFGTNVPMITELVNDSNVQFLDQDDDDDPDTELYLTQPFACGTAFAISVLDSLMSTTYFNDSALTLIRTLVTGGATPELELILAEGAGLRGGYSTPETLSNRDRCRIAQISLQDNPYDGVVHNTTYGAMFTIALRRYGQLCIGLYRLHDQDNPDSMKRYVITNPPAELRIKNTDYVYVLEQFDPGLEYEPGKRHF
In the case of `O=C(N[C@H]1CCOc2ccccc21)c1cnc2c(-c3cc(C(F)(F)F)ccc3C(F)(F)F)cccc2c1N1CCOCC1` [Example 461], the “pE50 (negative decadic logarithm of EC50)” value is reported as 7,5-8,5. For `O=C(N[C@H]1CCOc2ccccc21)c1cnc2c(-c3cc(Cl)ccc3Cl)cccc2c1N1CCOCC1` [Example 462], the “pE50 (negative decadic logarithm of EC50)” value was > 8,5. For `O=C(N[C@H]1CCOc2ccccc21)c1cnc2c(-c3cc(F)ccc3C(F)(F)F)cccc2c1N1CCOCC1` [Example 463], the “pE50 (negative decadic logarithm of EC50)” value was 7,5-8,5. For `N#Cc1ccc(Cl)c(-c2cccc3c(N4CCOCC4)c(C(=O)N[C@H]4CCOc5ccccc54)cnc23)c1` [Example 464], the “pE50 (negative decadic logarithm of EC50)” value was 7,5-8,5. In the case of `Cc1ccc(Cl)c(-c2cccc3c(N4CCOCC4)c(C(=O)N[C@H]4CCOc5ccccc54)cnc23)c1` [Example 465], the “pE50 (negative decadic logarithm of EC50)” value is reported as > 8,5. `Cc1ccc(F)cc1-c1cccc2c(N3CCOCC3)c(C(=O)N[C@H]3CCOc4ccccc43)cnc12` [Example 466] was tested, and the “pE50 (negative decadic logarithm of EC50)” value was 7,5-8,5. For `Cc1ccc(F)c(-c2cccc3c(N4CCOCC4)c(C(=O)N[C@H]4CCOc5ccccc54)cnc23)c1` [Example 467], the “pE50 (negative decadic logarithm of EC50)” value was > 8,5. For `Cc1ccc(C)c(-c2cccc3c(N4CCOCC4)c(C(=O)N[C@H]4CCOc5ccccc54)cnc23)c1` [Example 468], the “pE50 (negative decadic logarithm of EC50)” value was > 8,5. For `CN(C)c1c(C(=O)N[C@H]2CCOc3ccccc32)cnc2c(-c3cc(Cl)ccc3Cl)cccc12` [Example 469], the “pE50 (negative decadic logarithm of EC50)” value was > 8,5. With `Cc1ccc(Cl)c(-c2cccc3c(N(C)C)c(C(=O)N[C@H]4CCOc5ccccc54)cnc23)c1` [Example 470] the “pE50 (negative decadic logarithm of EC50)” value was > 8,5. With `COc1cc(-c2cccc3c(N(C)C)c(C(=O)N[C@H]4CCOc5ccccc54)cnc23)cc(OC)n1` [Example 472] the “pE50 (negative decadic logarithm of EC50)” value was 7,5-8,5. With `Cc1cc(-c2cccc3c(N(C)C)c(C(=O)N[C@H]4CCOc5ccccc54)cnc23)cc(Cl)n1` [Example 473] the “pE50 (negative decadic logarithm of EC50)” value was 7,5-8,5. With `COc1nccc(-c2cccc3c(N(C)C)c(C(=O)N[C@H]4CCOc5ccccc54)cnc23)c1OC` [Example 474] the “pE50 (negative decadic logarithm of EC50)” value was 6,5-7,5. `COc1nccc(-c2cccc3c(N(C)C)c(C(=O)N[C@H]4CCOc5ccccc54)cnc23)c1Cl` [Example 475] was tested, and the “pE50 (negative decadic logarithm of EC50)” value was 7,5-8,5. In the case of `CN(C)c1c(C(=O)N[C@H]2CCOc3ccccc32)cnc2c(-c3ccnc(Cl)c3Cl)cccc12` [Example 476], the “pE50 (negative decadic logarithm of EC50)” value is reported as 7,5-8,5. For `CC(C)c1c(C(=O)N[C@H]2CCOc3ccccc32)cnc2c(-c3cccc(Cl)c3Cl)c(F)ccc12` [Example 477], the “pE50 (negative decadic logarithm of EC50)” value was > 8,5. `CC(C)c1c(C(=O)N[C@H]2CCOc3ccccc32)cnc2c(-c3cccc(OC(F)(F)F)c3)c(F)ccc12` [Example 479] was tested, and the “pE50 (negative decadic logarithm of EC50)” value was > 8,5. For `Cc1cc(-c2cccc3c(N4CCOCC4)c(C(=O)N[C@H]4CCOc5ccccc54)cnc23)c(C)s1` [Example 480], the “pE50 (negative decadic logarithm of EC50)” value was 7,5-8,5. In the case of `CC(C)c1c(C(=O)N[C@H]2CCOc3ccccc32)cnc2c(-c3cc(F)cc(F)c3F)c(F)ccc12` [Example 487], the “pE50 (negative decadic logarithm of EC50)” value is reported as > 8,5. `CC(C)c1c(C(=O)N[C@H]2CCOc3ccccc32)cnc2c(-c3cccc(C(F)(F)F)c3)c(F)ccc12` [Example 488] was tested, and the “pE50 (negative decadic logarithm of EC50)” value was > 8,5. For `O=C(N[C@H]1CCOc2ccccc21)c1cnc2c(-c3cc(Cl)cc(Cl)c3)cccc2c1-c1ccsc1` [Example 489], the “pE50 (negative decadic logarithm of EC50)” value was > 8,5. With `O=C(N[C@H]1CCc2ccccc21)c1cnc2c(-c3cccc(Cl)c3Cl)c(F)ccc2c1N1CCOCC1` [Example 491] the “pE50 (negative decadic logarithm of EC50)” value was > 8,5. For `O=C(N[C@H]1CCCc2ccccc21)c1cnc2c(-c3cccc(Cl)c3Cl)c(F)ccc2c1N1CCOCC1` [Example 492], the “pE50 (negative decadic logarithm of EC50)” value was > 8,5. For `O=C(N[C@H]1CCOc2ccccc21)c1cnc2c(-c3cc(Cl)cc(Cl)c3)cccc2c1C1CCCC1` [Example 494], the “pE50 (negative decadic logarithm of EC50)” value was 7,5-8,5. In the case of `O=C(N[C@H]1CCOc2ccccc21)c1cnc2c(-c3cc(O)cc(Cl)c3Cl)cccc2c1N1CCOCC1` [Example 495], the “pE50 (negative decadic logarithm of EC50)” value is reported as 7,5-8,5. `COc1ccc(-c2cccc(Cl)c2Cl)c2ncc(C(=O)N[C@H]3CCOc4ccccc43)c(N3CCOCC3)c12` [Example 496] was tested, and the “pE50 (negative decadic logarithm of EC50)” value was > 8,5. `COc1ccc(-c2cc(Cl)ccc2F)c2ncc(C(=O)N[C@H]3CCOc4ccccc43)c(N3CCOCC3)c12` [Example 497] was tested, and the “pE50 (negative decadic logarithm of EC50)” value was > 8,5. `COc1cc(-c2cc(Cl)cc(Cl)c2)c2ncc(C(=O)N[C@H]3CCOc4ccccc43)c(N3CCOCC3)c2c1` [Example 498] was tested, and the “pE50 (negative decadic logarithm of EC50)” value was > 8,5. With `COc1cc(-c2cccc(Cl)c2Cl)c2ncc(C(=O)N[C@H]3CCOc4ccccc43)c(N3CCOCC3)c2c1` [Example 499] the “pE50 (negative decadic logarithm of EC50)” value was 7,5-8,5. `COc1cc(-c2cc(Cl)ccc2F)c2ncc(C(=O)N[C@H]3CCOc4ccccc43)c(N3CCOCC3)c2c1` [Example 500] was tested, and the “pE50 (negative decadic logarithm of EC50)” value was 7,5-8,5. `COc1cc(-c2cc(Cl)cc(Cl)c2)c2ncc(C(=O)N[C@H]3CCOc4ccccc43)c(N(C)C)c2c1` [Example 501] was tested, and the “pE50 (negative decadic logarithm of EC50)” value was 7,5-8,5. For `COc1cc(-c2cccc(Cl)c2Cl)c2ncc(C(=O)N[C@H]3CCOc4ccccc43)c(N(C)C)c2c1` [Example 502], the “pE50 (negative decadic logarithm of EC50)” value was 7,5-8,5. With `COc1cc(-c2cc(Cl)ccc2F)c2ncc(C(=O)N[C@H]3CCOc4ccccc43)c(N(C)C)c2c1` [Example 503] the “pE50 (negative decadic logarithm of EC50)” value was 7,5-8,5. In the case of `COc1ccc(-c2cccc(Cl)c2Cl)c2ncc(C(=O)N[C@H]3CCOc4ccccc43)c(N(C)C)c12` [Example 505], the “pE50 (negative decadic logarithm of EC50)” value is reported as > 8,5. With `COc1ccc(-c2cc(Cl)ccc2F)c2ncc(C(=O)N[C@H]3CCOc4ccccc43)c(N(C)C)c12` [Example 506] the “pE50 (negative decadic logarithm of EC50)” value was > 8,5. For `CN(C)c1c(C(=O)N[C@H]2CCOc3ccccc32)cnc2c(-c3cc(Cl)cc(Cl)c3)ccc(Cl)c12` [Example 507], the “pE50 (negative decadic logarithm of EC50)” value was 7,5-8,5. `CN(C)c1c(C(=O)N[C@H]2CCOc3ccccc32)cnc2c(-c3cccc(Cl)c3Cl)ccc(Cl)c12` [Example 508] was tested, and the “pE50 (negative decadic logarithm of EC50)” value was 7,5-8,5. With `CN(C)c1c(C(=O)N[C@H]2CCOc3ccccc32)cnc2c(-c3cc(Cl)ccc3F)ccc(Cl)c12` [Example 509] the “pE50 (negative decadic logarithm of EC50)” value was 7,5-8,5. For `CN(C)c1c(C(=O)N[C@H]2CCOc3ccccc32)cnc2c(-c3cccc(Cl)c3Cl)cc(C(F)(F)F)cc12` [Example 510], the “pE50 (negative decadic logarithm of EC50)” value was 5,3-6,5. For `CN(C)c1c(C(=O)N[C@H]2CCOc3ccccc32)cnc2c(-c3cc(Cl)ccc3F)cc(C(F)(F)F)cc12` [Example 511], the “pE50 (negative decadic logarithm of EC50)” value was 5,3-6,5. With `O=C(N[C@H]1CCOc2ccccc21)c1cnc2c(-c3cc(Cl)cc(Cl)c3)cc(C(F)(F)F)cc2c1N1CCOCC1` [Example 512] the “pE50 (negative decadic logarithm of EC50)” value was 6,5-7,5. In the case of `O=C(N[C@H]1CCOc2ccccc21)c1cnc2c(-c3cccc(Cl)c3Cl)cc(C(F)(F)F)cc2c1N1CCOCC1` [Example 513], the “pE50 (negative decadic logarithm of EC50)” value is reported as 6,5-7,5. In the case of `O=C(N[C@H]1CCOc2ccccc21)c1cnc2c(-c3cc(Cl)ccc3F)cc(C(F)(F)F)cc2c1N1CCOCC1` [Example 514], the “pE50 (negative decadic logarithm of EC50)” value is reported as 6,5-7,5. In the case of `O=C(N[C@H]1CCOc2ccccc21)c1cnc2c(-c3cc(Cl)cc(Cl)c3)cccc2c1-c1cnn(C(F)F)c1` [Example 520], the “pE50 (negative decadic logarithm of EC50)” value is reported as > 8,5. With `O=C(N[C@H]1CCOc2ccccc21)c1cnc2c(-c3cc(O)cc(Cl)c3Cl)cc(O)cc2c1N1CCOCC1` [Example 521] the “pE50 (negative decadic logarithm of EC50)” value was 5,3-6,5. For `Cc1nc2c(-c3cccc(Cl)c3Cl)cccc2c(N(C)C)c1C(=O)N[C@H]1CCOc2ccccc21` [Example 523], the “pE50 (negative decadic logarithm of EC50)” value was 7,5-8,5. In the case of `CN(C)c1c(C(=O)N[C@H]2CCOc3ccccc32)cnc2c(-c3cc(Cl)ccc3F)c(N)ccc12` [Example 528], the “pE50 (negative decadic logarithm of EC50)” value is reported as 7,5-8,5. `CN(C)c1c(C(=O)N[C@H]2CCOc3ccccc32)cnc2c(-c3cc(Cl)cc(Cl)c3)c(N)ccc12` [Example 529] was tested, and the “pE50 (negative decadic logarithm of EC50)” value was 7,5-8,5. In the case of `COc1ccc(-c2cc(Cl)cc(Cl)c2)c2ncc(C(=O)N[C@H]3CCOc4ccccc43)c(N3CCOCC3)c12` [Example 530], the “pE50 (negative decadic logarithm of EC50)” value is reported as 7,5-8,5. In the case of `O=C(N[C@H]1CCOc2ccccc21)c1cnc2c(-c3cc(Cl)ccc3F)ccc(Cl)c2c1N1CCOCC1` [Example 531], the “pE50 (negative decadic logarithm of EC50)” value is reported as 7,5-8,5. For `O=C(N[C@H]1CCOc2ccccc21)c1cnc2c(-c3cccc(Cl)c3Cl)ccc(Cl)c2c1N1CCOCC1` [Example 532], the “pE50 (negative decadic logarithm of EC50)” value was 7,5-8,5. In the case of `O=C(N[C@H]1CCOc2ccccc21)c1cnc2c(-c3cc(Cl)cc(Cl)c3)ccc(Cl)c2c1N1CCOCC1` [Example 533], the “pE50 (negative decadic logarithm of EC50)” value is reported as 7,5-8,5. For `Nc1ccc2c(N3CCOCC3)c(C(=O)N[C@H]3CCOc4ccccc43)cnc2c1-c1cc(Cl)ccc1F` [Example 536], the “pE50 (negative decadic logarithm of EC50)” value was 7,5-8,5. `Nc1ccc2c(N3CCOCC3)c(C(=O)N[C@H]3CCOc4ccccc43)cnc2c1-c1cccc(Cl)c1Cl` [Example 537] was tested, and the “pE50 (negative decadic logarithm of EC50)” value was 7,5-8,5. `Nc1ccc2c(N3CCOCC3)c(C(=O)N[C@H]3CCOc4ccccc43)cnc2c1-c1cc(Cl)cc(Cl)c1` [Example 538] was tested, and the “pE50 (negative decadic logarithm of EC50)” value was 7,5-8,5. With `O=C(N[C@H]1CCOc2ccccc21)c1cnc2c(-c3cc(F)cc(F)c3F)c(F)ccc2c1N1CCOCC1` [Example 540] the “pE50 (negative decadic logarithm of EC50)” value was > 8,5. For `CNc1c(C(=O)N[C@H]2CCOc3ccccc32)cnc2c(-c3cc(F)c(OC(F)F)c(F)c3)c(F)ccc12` [Example 547], the “pE50 (negative decadic logarithm of EC50)” value was 5,3-6,5. With `Cc1c(C(=O)N[C@H]2CCOc3ccccc32)cnc2c(-c3cc(F)cc(F)c3F)cccc12` [Example 554] the “pE50 (negative decadic logarithm of EC50)” value was > 8,5. In the case of `CN(C)c1c(C(=O)N[C@H]2CCOc3ccccc32)cnc2c(-c3cc(Cl)ccc3F)c(O)ccc12` [Example 559], the “pE50 (negative decadic logarithm of EC50)” value is reported as 7,5-8,5. In the case of `CN(C)c1c(C(=O)N[C@H]2CCOc3ccccc32)cnc2c(-c3cccc(Cl)c3Cl)c(O)ccc12` [Example 560], the “pE50 (negative decadic logarithm of EC50)” value is reported as 6,5-7,5. For `CN(C)c1c(C(=O)N[C@H]2CCOc3ccccc32)cnc2c(-c3cc(Cl)cc(Cl)c3)c(O)ccc12` [Example 561], the “pE50 (negative decadic logarithm of EC50)” value was 7,5-8,5.

— patent US10889573B2, “Anthelmintic quinoline-3-carboxamide derivatives” (Bayer Animal Health GMBH, priority 2016, dated 2021)
